# Reference: the supplement of paper PMC3334620
# In all, about 33,000 sequences were measured (“E-score (-0.5 to 0.5)”: median about -0.012, highest 2% from about 0.27 on). The list shows a part of the results.
# Biological target: T1, Vhr1 (UniProt P40522)
# T1 sequence: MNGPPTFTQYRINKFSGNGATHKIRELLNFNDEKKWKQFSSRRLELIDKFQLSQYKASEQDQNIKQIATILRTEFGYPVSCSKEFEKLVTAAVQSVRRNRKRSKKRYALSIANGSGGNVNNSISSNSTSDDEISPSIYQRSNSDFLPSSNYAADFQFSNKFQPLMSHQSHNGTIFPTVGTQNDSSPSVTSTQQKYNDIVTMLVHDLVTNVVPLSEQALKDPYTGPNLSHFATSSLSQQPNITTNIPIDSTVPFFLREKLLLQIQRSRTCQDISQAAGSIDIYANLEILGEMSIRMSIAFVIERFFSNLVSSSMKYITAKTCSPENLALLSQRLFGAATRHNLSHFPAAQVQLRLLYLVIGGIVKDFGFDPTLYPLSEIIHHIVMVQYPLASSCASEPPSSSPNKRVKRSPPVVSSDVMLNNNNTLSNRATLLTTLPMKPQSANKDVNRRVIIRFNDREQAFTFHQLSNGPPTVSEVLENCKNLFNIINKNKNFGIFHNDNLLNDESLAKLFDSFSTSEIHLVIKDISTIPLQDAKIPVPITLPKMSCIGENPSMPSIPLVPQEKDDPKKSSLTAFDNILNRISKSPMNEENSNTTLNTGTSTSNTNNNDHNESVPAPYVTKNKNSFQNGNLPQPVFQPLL
# Experiment: PBM E-score (8-mer binding enrichment) (E-score (-0.5 to 0.5)); higher = stronger / more preferred TF binding; most listed sequences are background and not binding sites
# Details: protein concentration: 200 nM; construct: GST-full length
# How it was run: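 Full-length yeast transcription factors or their DNA-binding domains, GST-tagged and expressed with PURExpress, were applied at about 100-200 nM to universal all-10-mer Agilent arrays. These arrays had been made double-stranded by primer extension on fresh or once-stripped slides. Detection used fluorescent anti-GST, normalisation used masliner, and E-scores for ungapped eight-base words pooled with reverse complements came from the Universal PBM Analysis Suite.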
row,Sequence,PBM E-score
1,CAGTGACG,0.0292
2,GCTGTTAA,-0.115
3,ACGCGTTG,-0.0506
4,CCGTCCTA,-0.135
5,ACAGCTAT,-0.149
6,GTACCAAC,0.0401
7,ATCGAAAC,0.0206
8,GCCTAAAA,-0.168
9,CCTGCGCA,-0.151
10,CAGGCCCA,-0.208
11,ACGCTGAC,0.128
12,CTTACGCC,-0.019
13,ATCGGGTA,-0.0136
14,TACATCGA,0.142
15,CCAGTTCG,-0.0499
16,AGGAATCC,0.119
17,TATGAAGA,-0.0555
18,GCATTTTA,-0.141
19,AAGCAATT,-0.103
20,AGATGTGA,0.233
21,CATCGACC,0.0173
22,GAATGATA,0.213

row,Sequence,PBM E-score
1,AAAACTCA,-0.00882
2,ACGGCACT,-0.0791
3,CGTGTGAG,0.23
4,AACTAAAC,0.0617
5,CGCCGGAG,-0.0128
6,ATCTAAAT,0.0357
7,CTTCGGTC,0.0799
8,CTTTCGCA,-0.136
9,CACGAGGC,0.00213
10,CGGCAAAA,-0.198
11,CGGTCGTA,-0.0601
12,GCAAAAGC,-0.251
13,GGGGTCCA,-0.229
14,ACGAGGCA,-0.0723
15,CAAGGTAG,-0.0447
16,GCCATCGA,0.0619
17,CAGGAGGC,-0.153
18,ACTCCTTG,0.149
19,AAATACGA,-0.0441
20,ACGCTACC,-0.271
21,ATTTTATC,-0.13
22,AGAGGCCC,-0.181

row,Sequence,PBM E-score
1,AGCGATTC,0.168
2,GCCAACCC,-0.144
3,GAGGTTAA,-0.247
4,ATCGTGAC,0.113
5,CAATTACC,-0.132
6,ATTCTCGA,0.17
7,GCTTAGTA,-0.171
8,CCATAGTA,0.225
9,AGTGAACG,-0.103
10,CTGCTACC,-0.0378
11,ATGTTAAA,-0.133
12,CATTGCCC,0.0302
13,ACGGATGG,0.102
14,ACGAGGGC,-0.0718
15,GCCTCATA,-0.11
16,AGTAATCC,0.0334
17,AGGGCGAG,-0.0205
18,GAAGAGTC,0.194
19,CCCTGATA,-0.179
20,CGGTAAAG,-0.151
21,CTGGACCC,-0.213
22,ACGATCTA,-0.0658

row,Sequence,PBM E-score
1,ACTCAAGC,0.0286
2,GATCGCAC,0.0502
3,ACTGGTCG,0.0753
4,GACAGCAA,-0.0406
5,AATGAGCT,-0.098
6,ATCGCAAC,0.072
7,AATATGCA,-0.0315
8,ATCAGACC,0.0881
9,GATGTAGC,-0.0956
10,GGAAGTCC,-0.212
11,CTGATTCA,0.341
12,CAGTTGGA,-0.0496
13,GACTATCA,0.0818
14,CGTCGATA,-0.0034
15,ATCAAAAC,-0.0539
16,AAAGGCTC,-0.223
17,ACCTCTTA,0.0805
18,TCTCACAA,0.0793
19,CACATAGA,0.00197
20,ACAGATCA,-0.0142
21,GGCGTGGA,-0.0947
22,CACTCTCA,-0.0995

row,Sequence,PBM E-score
1,GAAATTAA,-0.0243
2,CCTTACGA,-0.17
3,ATCTCTAA,-0.00351
4,TCATAACA,0.272
5,ATTTATCC,-0.0317
6,TAAAATTA,-0.168
7,AGAACCCG,-0.0768
8,CAAGCAGG,-0.0423
9,ACGGCCAA,-0.156
10,AGCAACTC,-0.0748
11,CGTCTCGC,-0.0775
12,AATCTGAA,0.0756
13,AATCTAGC,-0.218
14,GCATCAGC,-0.0271
15,TAGCATCA,0.0453
16,TCCCAAAA,-0.0725
17,CTCCGTTC,-0.0538
18,CACAGACC,0.307
19,CGACCACC,-0.00207
20,GATGTTTA,0.118
21,ATAATAGA,-0.0909
22,CCACCACC,0.0973
